Laboratory results published in the supplement of paper PMC11417369.
± gives the standard deviation of the averaged measurements. This is one part of the list.

System: PfAP2-I AP2 domain 3 (GST-tagged)
Assay: gcPBM binding intensity (ln(normalized median fluorescence intensity)); higher = stronger DNA binding
Outline: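 In this array assay, P. falciparum DNA-binding domains with a GST tag, expressed in E. coli, were applied for 1 h to primer-extended double-stranded 36-bp intergenic genomic probes and negative controls on an Agilent 4 × 180k array. Bound protein was visualised with Alexa488 anti-GST antibody at 488 nm. Binding intensity is the highest Masliner-normalised natural-log median intensity across replicate spots of either probe orientation.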

In order of falling “gcPBM binding intensity (ln)” value:
1. TTTTTATTGAGAACAGTGCAAATAACAAAAAAAAAA  10.5 ± 0.15
2. TTTTAATTATATTATGCACACACAATTGGAAAAAAA [CACACA_site8598]  10 ± 0.57
3. AACATTATAGGACACACACACACATATATATATATA [CACACA_site4721]  9.61 ± 0.24
4. TAAATAAATACATACACACACATACATATATATATA [CACACA_site3129]  9.41 ± 0.39
5. ACGATATTTTTGGTGACACACATATATATATATATA [CACACA_site126]  9.33 ± 0.28
6. CACTATCAATATATATGTACATATATATATATATAT [XGTACX_site7854]  9.25 ± 0.41
7. AAAAAAAAAAAAAAAAGTACAGACGTCAAAAAAAAA [XGTACX_site4817]  8.76 ± 0.16
8. ATTTGGCATAAACACACACACACACCCACCCACATA [CACACA_site8096]  8.39 ± 0.67
9. TAAATATATAAATACACACAAACATACATATATATA [CACACA_site4050]  8.31 ± 0.58
10. CACTAAAATGGACACACACACACACCGATATATATA [CACACA_site6139]  8.29 ± 0.51
11. TATTTTTTTGTGTTTGGTACACACGTTATAAAAAAT [XGTACX_site2655]  8.15 ± 0.36
12. TATTTATTTATATTTACACACATTCATATAAATTCA [CACACA_site7628]  8.1 ± 0.37
13. TTTTTTTTTTTTTTTTTTTTTTTTGGGTCCCATACA [CACACA_negctrl_site913]  8.1 ± 0.63
14. ATATAAAAATATATTAATATAAATAAATGGACATAT [XGTACX_negctrl_site488]  8.05 ± 0.74
15. TTTTTTTTTTTTTTTTTTTTTTTTAAATGCTTCTAA [TGCATGCA_negctrl_site253]  8.04 ± 0.63
16. GTAAAAAATATGAATACACACATAAAGGAAATAACA [CACACA_site1997]  8.04 ± 0.83
17. TTATAATAAATATGAAGTACTATAAATATGGTATAT [XGTACX_site5448]  7.88 ± 0.42
18. TTATTGTTTATTAAATGTACAGATTCGTTAAAATTA [XGTACX_site3041]  7.845 ± 0.064
19. ATCGCATAAAGACAAGAACACACATATATATTGTAG [CACACA_site9229]  7.8 ± 0.62
20. GTCACATTGTTATATTGTACAAATGTCGTTCTTTTT [XGTACX_site8098]  7.75 ± 0.69
21. CTTATACATTATTAACGTACATGTTATATGAATAAC [XGTACX_site5752]  7.72 ± 0.16
22. AAAAAAAAAAAATTCACACACATATAAAAAATTAAG [CACACA_site728]  7.62 ± 0.55
23. AACAAATAAGATAAATGACTTAACAAAAGAAAAAAG [CACACA_negctrl_site1409]  7.52 ± 0.86
24. AATAAATATAGGAATACACACAATATAAATGTATTG [CACACA_site3366]  7.5 ± 0.62
25. TAATATATAAGTATTTGTACATATTCATTCATCTAT [XGTACX_site2935]  7.49 ± 0.49
